Reference: PubChem BioAssay (Tox21)
The shares of active, inactive and inconclusive entries below differ from those in the screen. For some of these results: Potencies of inconclusive entries are doubtful fits and often do not repeat. Calls of active or inactive are those of the source. Unless noted, calls follow the shape of the full dose curve.

Columns and labels:
[1] = molecular target: Peroxisome proliferator-activated receptor gamma (Homo sapiens) (UniProt P37231); assay: qHTS assay to identify small molecule antagonists of the peroxisome proliferator-activated receptor gamma (PPARg) signaling pathway (AID 743191); conditions: HEK293H PPARg-UAS-bla, beta-lactamase ratio, antagonist, 17 h; ratio activity, negative = inhibition: at 62.6 µM (top of the series) unless noted; also: nearly all actives have a fitted effect of over 30% in size; also: potency is read from the fitted curve at half-maximal effect
Sequence of UniProt P37231 (P37231 whole entry, looked up): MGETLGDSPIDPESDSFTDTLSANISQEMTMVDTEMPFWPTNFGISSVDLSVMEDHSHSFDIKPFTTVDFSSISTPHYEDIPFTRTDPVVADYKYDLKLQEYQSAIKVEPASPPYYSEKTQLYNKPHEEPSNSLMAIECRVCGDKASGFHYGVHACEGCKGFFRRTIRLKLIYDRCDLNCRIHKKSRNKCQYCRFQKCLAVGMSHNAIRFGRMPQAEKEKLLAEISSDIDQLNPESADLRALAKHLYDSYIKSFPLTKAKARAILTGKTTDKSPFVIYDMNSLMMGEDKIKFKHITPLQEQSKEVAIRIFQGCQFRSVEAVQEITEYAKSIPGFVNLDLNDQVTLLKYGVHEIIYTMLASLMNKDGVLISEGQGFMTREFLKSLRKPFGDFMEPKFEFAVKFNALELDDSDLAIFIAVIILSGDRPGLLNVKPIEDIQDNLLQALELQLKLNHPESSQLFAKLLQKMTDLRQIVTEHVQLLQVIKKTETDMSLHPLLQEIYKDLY
Summary of the method: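 GeneBLAzer PPARg UAS-bla HEK293H cells, 5 h post-plating, exposed to compounds 17 h at 37C. LiveBLAzer B/G FRET substrate added for 1 h at room temperature; beta-lactamase reporter read by fluorescence intensity.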

[2] = qHTS assay for small molecule agonists of the antioxidant response element (ARE) signaling pathway (AID 743202; active = well fitted activation curve with a large enough effect in the signal ratio in the repeat runs, not every such curve was filed as active; inconclusive = weak or mixed curves, or effect the other way; inactive = no such curve, though single readings can be large or run the other way; the % refers to the signal ratio; also: potency is read from the fitted curve at half-maximal effect); conditions: HepG2 ARE-bla reporter, beta-lactamase FRET, 16 h; activation: at 73.3 µM (top of the series) unless noted
Summary of the method: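 HepG2 ARE-bla cells; 16 h treatment at 37 C; FRET-based beta-lactamase fluorescence read after 2 h substrate incubation at room temperature.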

[3] = qHTS assay to identify small molecule antagonists of the peroxisome proliferator-activated receptor delta (PPARd) signaling pathway - cell viability counter screen (AID 743213; active = well fitted curve in the direction sought with a large enough effect in the repeat runs; inconclusive = weak or mixed curves; inactive = no such curve, though single readings can be large; an effect the other way counts as inactive or inconclusive; also: nearly all actives have a fitted effect of over 50% in size; also: potency is read from the fitted curve at half-maximal effect); conditions: PPARd-bla HEK293H viability, CellTiter-Glo luminescence, 17 h; viability change, negative = cytotoxic: at 62 µM (top of the series) unless noted
Summary of the method: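 Viability counter-screen, qHTS format: PPARd-bla HEK293H, L165041 300 nM final, 17 h compound exposure at 37 C, CellTiter-Glo luminescence after 30 min RT.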

[4] = molecular target: Bile acid receptor (Homo sapiens) (UniProt Q96RI1); assay: qHTS assay to identify small molecule agonists of the farnesoid-X-receptor (FXR) signaling pathway (AID 743220; active = well fitted activation curve with a large enough effect in the signal ratio in the repeat runs, not every such curve was filed as active; inconclusive = weak or mixed curves, or effect the other way; the % refers to the signal ratio; also: potency is read from the fitted curve at half-maximal effect); conditions: HEK293T FXR-UAS-bla, beta-lactamase FRET ratio, 16 h; activation: at 62.6 µM (top of the series) unless noted
Sequence of UniProt Q96RI1 (Q96RI1 whole entry, looked up): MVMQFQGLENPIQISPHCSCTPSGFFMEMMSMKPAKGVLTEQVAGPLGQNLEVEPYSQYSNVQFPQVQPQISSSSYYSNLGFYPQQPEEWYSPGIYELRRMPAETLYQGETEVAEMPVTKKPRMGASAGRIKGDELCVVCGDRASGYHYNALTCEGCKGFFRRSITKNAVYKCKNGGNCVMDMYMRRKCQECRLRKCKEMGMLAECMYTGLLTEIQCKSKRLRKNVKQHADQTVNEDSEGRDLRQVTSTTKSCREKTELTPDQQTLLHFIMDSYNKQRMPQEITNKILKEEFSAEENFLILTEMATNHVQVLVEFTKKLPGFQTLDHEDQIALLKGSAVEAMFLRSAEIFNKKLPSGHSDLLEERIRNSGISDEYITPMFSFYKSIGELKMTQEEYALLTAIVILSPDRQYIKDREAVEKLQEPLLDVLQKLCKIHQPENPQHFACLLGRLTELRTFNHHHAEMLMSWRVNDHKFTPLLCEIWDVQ
Summary of the method: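 FXR-UAS-bla HEK 293T cells carrying a UAS-driven beta-lactamase reporter were plated for 5 h at 37C/5% CO2, then exposed to DMSO-dissolved Tox21 10K compounds for 16 h at 37C. A LiveBLAzer B/G FRET substrate was loaded for 2 h at room temperature before fluorescence reading.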

[5] = molecular target: Vitamin D3 receptor (Homo sapiens) (UniProt P11473); assay: qHTS assay to identify small molecule antagonists of the vitamin D receptor (VDR) signaling pathway (AID 743223; active = well fitted inhibition curve with a large enough effect in the signal ratio in the repeat runs, not every such curve was filed as active; inconclusive = weak or mixed curves, or effect the other way; inactive = no such curve, though single readings can be large or run the other way; the % refers to the signal ratio; also: potency is read from the fitted curve at half-maximal effect); conditions: VDR-UAS-bla HEK293T, beta-lactamase FRET ratio, 16 h; activity change, negative = inhibition: at 61 µM (top of the series) unless noted
Sequence of UniProt P11473 (P11473 whole entry, looked up): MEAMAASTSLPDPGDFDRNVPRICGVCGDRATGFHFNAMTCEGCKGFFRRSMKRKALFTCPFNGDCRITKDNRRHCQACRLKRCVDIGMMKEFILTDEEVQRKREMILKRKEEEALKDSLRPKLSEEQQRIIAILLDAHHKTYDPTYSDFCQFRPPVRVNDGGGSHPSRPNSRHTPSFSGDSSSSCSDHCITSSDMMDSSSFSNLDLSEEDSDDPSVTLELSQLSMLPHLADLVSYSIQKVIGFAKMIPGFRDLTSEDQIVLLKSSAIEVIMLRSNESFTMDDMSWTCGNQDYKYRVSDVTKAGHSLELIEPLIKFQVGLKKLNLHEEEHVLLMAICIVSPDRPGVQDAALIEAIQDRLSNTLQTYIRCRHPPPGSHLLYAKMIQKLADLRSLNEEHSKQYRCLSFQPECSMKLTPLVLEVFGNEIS
Summary of the method: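 VDR-bla cells were plated, incubated 4 h at 37C, then given compound and 1alpha,25-dihydroxyvitamin D3 (3 nM final). After 16 h at 37C, LiveBLAzer B/G FRET substrate was added for 2 h at room temperature and fluorescence read.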

[6] = qHTS assay to identify small molecule agonists of the farnesoid-X-receptor (FXR) signaling pathway - cell viability counter screen (AID 743218; active = well fitted curve in the direction sought with a large enough effect in the repeat runs; inconclusive = weak or mixed curves; inactive = no such curve, though single readings can be large; an effect the other way counts as inactive or inconclusive; also: nearly all actives have a fitted effect of over 45% in size; also: potency is read from the fitted curve at half-maximal effect); conditions: FXR-bla HEK293T viability, CellTiter-Glo luminescence, 16 h; viability change, negative = cytotoxic: at 62.6 µM (top of the series) unless noted
Summary of the method: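 Quantitative HTS counter screen measuring ATP-based viability via CellTiter-Glo luminescence in HEK 293T cells carrying a UAS-driven beta-lactamase reporter, after 16 h compound exposure at 37 C.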

[7] = molecular target: Vitamin D3 receptor (Homo sapiens) (UniProt P11473); assay: qHTS assay to identify small molecule agonists of the vitamin D receptor (VDR) signaling pathway (AID 743222); conditions: HEK293T VDR-UAS-bla, beta-lactamase FRET ratio, 16 h; activation: at 63.5 µM (top of the series) unless noted; also: potency is read from the fitted curve at half-maximal effect
Summary of the method: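 Tox21 cell reporter format: VDR-bla line, 16 h compound exposure in 5% CO2 at 37C, then fluorescence intensity after 2 h with LiveBLAzer B/G FRET substrate.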

[8] = molecular target: Peroxisome proliferator-activated receptor delta (Homo sapiens) (UniProt Q03181); assay: qHTS assay to identify small molecule antagonists of the peroxisome proliferator-activated receptor delta (PPARd) signaling pathway (AID 743215; active = well fitted inhibition curve with a large enough effect in the signal ratio in the repeat runs, not every such curve was filed as active; inconclusive = weak or mixed curves, or effect the other way; inactive = no such curve, though single readings can be large or run the other way; the % refers to the signal ratio;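 also: cells stimulated with agonist L165041 at 300 nM final during compound exposure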; also: potency is read from the fitted curve at half-maximal effect); conditions: HEK293H PPARd-UAS-bla, beta-lactamase FRET ratio, antagonist, 17 h; ratio activity, negative = inhibition: at 62 µM (top of the series) unless noted
Sequence of UniProt Q03181 (Q03181 whole entry, looked up): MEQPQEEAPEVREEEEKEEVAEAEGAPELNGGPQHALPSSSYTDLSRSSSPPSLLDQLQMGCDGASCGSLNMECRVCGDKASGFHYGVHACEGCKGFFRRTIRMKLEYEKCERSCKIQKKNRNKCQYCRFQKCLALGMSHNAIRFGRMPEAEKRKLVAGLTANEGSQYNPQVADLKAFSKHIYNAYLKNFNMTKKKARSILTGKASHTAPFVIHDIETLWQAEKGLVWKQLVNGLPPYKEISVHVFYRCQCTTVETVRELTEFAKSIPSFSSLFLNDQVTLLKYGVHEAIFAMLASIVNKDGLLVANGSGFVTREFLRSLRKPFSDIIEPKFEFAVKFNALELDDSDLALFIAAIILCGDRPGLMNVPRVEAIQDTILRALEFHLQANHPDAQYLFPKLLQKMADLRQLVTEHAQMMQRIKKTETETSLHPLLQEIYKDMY
Summary of the method: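 Here, a reporter line (HEK293H, beta-lactamase under a UAS) measures PPARd signaling. Compounds are tested against agonist L165041 at 300 nM final concentration over 17 h at 37 C, with fluorescence read after substrate.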

[9] = molecular target: Bile acid receptor (Homo sapiens) (UniProt Q96RI1); assay: qHTS assay to identify small molecule antagonists of the farnesoid-X-receptor (FXR) signaling pathway (AID 743217; active = well fitted inhibition curve with a large enough effect in the signal ratio in the repeat runs, not every such curve was filed as active; inconclusive = weak or mixed curves, or effect the other way; inactive = no such curve, though single readings can be large or run the other way; the % refers to the signal ratio; also: potency is read from the fitted curve at half-maximal effect); conditions: HEK293T FXR-UAS-bla, beta-lactamase ratio, CDCA-stimulated, 16 h; activity change, negative = inhibition: at 62.6 µM (top of the series) unless noted
Summary of the method: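 Test compounds are pin-transferred onto FXR-bla HEK 293T cells, then chenodeoxycholic acid is added at 50 uM final. After 16 h at 37 °C, LiveBLAzer B/G substrate is applied for 2 h at room temperature and fluorescence read.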

[10] = molecular target: Peroxisome proliferator-activated receptor delta (Homo sapiens) (UniProt Q03181); assay: qHTS assay to identify small molecule agonists of the peroxisome proliferator-activated receptor delta (PPARd) signaling pathway (AID 743212); conditions: HEK293H PPARd-UAS-bla, beta-lactamase FRET ratio, 17 h; activation: at 62.6 µM (top of the series) unless noted; also: potency is read from the fitted curve at half-maximal effect
Summary of the method: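 Tox21 library screened in GeneBLAzer PPARd UAS-bla HEK293H cells. After compound treatment at 37 C, a FRET-based beta-lactamase substrate was applied for 2 h and fluorescence recorded.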

[11] = qHTS assay to identify small molecule agonists of the peroxisome proliferator-activated receptor delta (PPARd) signaling pathway - cell viability counter screen (AID 743211; active = well fitted curve in the direction sought with a large enough effect in the repeat runs; inconclusive = weak or mixed curves; inactive = no such curve, though single readings can be large; an effect the other way counts as inactive or inconclusive; also: nearly all actives have a fitted effect of over 55% in size); conditions: PPARd-bla HEK293H viability, CellTiter-Glo luminescence, 17 h; activity change, negative = cytotoxicity: at 62.6 µM (top of the series)
Summary of the method: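 PPARd-bla HEK293H cells (UAS-beta-lactamase reporter) were treated with compounds for 17 h at 37 C. Viability was then read in the same wells by CellTiter-Glo luminescence after 30 min at room temperature.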
% is scaled to controls: 0 for no effect and ±100 for the full control effect; tags tell the direction and shape of the fitted curve or compound fluorescence and quenching.

SMILES: ClC1=C(Cl)C1(Cl)Cl
- ratio activity, negative = inhibition [1]: inconclusive: 20.1% [at 81.1 µM]
- activation [2]: inconclusive: 2.14% [at 94.8 µM]
- Potency [3]: inactive
- Potency [4]: inactive
- Potency [5]: inactive

SMILES: C=CC(C)(O)CC/C=C(/C)CCC=C(C)C (stereo not given)
- ratio activity, negative = inhibition [1]: inconclusive: -2.05%
- Potency [2]: inconclusive: 54.5 µM [rising, partial curve]
- viability change, negative = cytotoxic [6]: inconclusive: 7.35%

SMILES: CCCCCCCCCCOC(=O)c1ccccc1C(=O)OCCCCCCCC
- ratio activity, negative = inhibition [1]: inconclusive: -0.557%
- Potency [2]: inconclusive: 21.7 µM [falling, partial curve, poor fit]
- Potency [6]: inactive
- activation [7]: inconclusive: 10.7%
- Potency [5]: inconclusive: 0.871 µM [activator, full curve, poor fit]

SMILES: COc1ccc(/C=C/c2cc(OC)cc(=O)o2)cc1
- ratio activity, negative = inhibition [1]: inconclusive: 13.9%
- Potency [2]: active: 0.443 µM
- Potency [8]: inactive
- Potency [6]: inconclusive: 10 µM [rising, single point]

SMILES: CC1(C)CCC[C@]2(C)[C@H]3CC(=O)O[C@]3(C)CC[C@@H]12
- ratio activity, negative = inhibition [1]: inconclusive: 0.0481%
- Potency [2]: inconclusive: 38.6 µM
- activity change, negative = inhibition [9]: inconclusive: -20.1%
- Potency [4]: inactive

SMILES: C[Si]1(C)O[Si](C)(C)O[Si](C)(C)O1
- Potency [1]: inactive
- activation [2]: inconclusive: -8.22%
- Potency [8]: inconclusive: 0.0087 µM [rising, full curve, poor fit]
- activity change, negative = inhibition [9]: inconclusive: 0.0405%
- activation [4]: inconclusive: -2.78%
- Potency [7]: inactive
- Potency [5]: inactive

SMILES: CCc1ccccc1O
- Potency [1]: inactive
- activation [2]: inconclusive: 0.634%
- Potency [4]: inactive
- Potency [5]: inactive

SMILES: CC(C)(C)CCCCCCOC(=O)c1ccccc1C(=O)OCCCCCCC(C)(C)C
- Potency [1]: inactive
- activation [2]: inconclusive: 10.2%
- Potency [3]: inconclusive: 0.0031 µM [cytotoxic, full curve, poor fit]

SMILES: CN1N=C(C(N)=O)CCC1=O
- Potency [1]: inactive
- Potency [2]: inactive
- ratio activity, negative = inhibition [8]: inconclusive: 3.43%
- Potency [5]: inconclusive: 0.601 µM [activator, partial curve]

SMILES: CCCCOC(=O)[C@H](C)O
- Potency [1]: inactive
- activation [2]: inconclusive: -1.9%
- Potency [9]: inactive
- Potency [5]: inactive

SMILES: Cc1cc(C)c(/C=C2\C(=O)Nc3ccccc32)[nH]1
- Potency [1]: inconclusive: 29.8 µM [rising, partial curve]
- Potency [2]: inconclusive: 0.841 µM [falling, full curve]
- Potency [10]: inconclusive: 29.8 µM [rising, partial curve]
- Potency [8]: active: 15 µM
- Potency [9]: inconclusive: 33.5 µM [rising, single point]
- Potency [4]: inconclusive: 33.5 µM [rising, single point]
- Potency [7]: inconclusive: 33.5 µM
- Potency [5]: inconclusive: 26.8 µM

SMILES: CC1=NN(c2ccc(S(=O)(=O)O)cc2)C(=O)C1
- Potency [1]: inactive
- Potency [2]: inactive
- Potency [3]: inactive
- Potency [6]: inactive
- activity change, negative = inhibition [5]: inconclusive: 48.4% [activator]

SMILES: O=c1[nH]cnc2c1ncn2[C@@H]1O[C@H](CO)[C@@H](O)[C@H]1O
- Potency [1]: inactive
- Potency [2]: inactive
- Potency [8]: inactive

SMILES: CCCCCCCCN(C)CCCCCCCC
- Potency [1]: inactive
- Potency [2]: inactive
- Potency [8]: inactive
- Potency [7]: inactive
- Potency [5]: inactive

SMILES: CC(C)(CC(=O)O)C(=O)O
- Potency [1]: inactive
- Potency [2]: inactive
- Potency [8]: inactive

SMILES: C=CCCCCCCCCCCC
- ratio activity, negative = inhibition [1]: inactive: 16.1% [at 5.95 µM]
- activation [2]: inconclusive: -6.39% [at 8.36 µM]
- Potency [3]: inconclusive: 0.0189 µM [cytotoxic, single point]
- viability change, negative = cytotoxic [6]: inactive: 33.3% [at 5.95 µM]

SMILES: Cc1oc(=O)oc1CN1CCN(c2cc3c(cc2F)c(=O)c(C(=O)O)c2n3C(C)S2)CC1 (stereo not given)
- Potency [1]: inactive
- activation [2]: inconclusive: 16.6%
- Potency [8]: inactive
- Potency [5]: inactive

SMILES: CCCCCCCCCCCC(=O)N(CC)CC
- ratio activity, negative = inhibition [1]: inconclusive: 3.79%
- Potency [2]: inactive
- Potency [6]: inconclusive: 0.871 µM [rising, full curve]

SMILES: C=CCON/C(CCC)=C1\C(=O)CC(C)(C)C(C(=O)OC)=C1O
- Potency [1]: inactive
- Potency [2]: inactive
- Potency [11]: inactive
- Potency [4]: inconclusive: 76.7 µM [rising, single point]

SMILES: Oc1ccc(Oc2ccccc2)cc1
- Potency [1]: inconclusive: 46.5 µM
- Potency [2]: active: 18.3 µM
- Potency [10]: inactive
